This test concerns the target Genome polyprotein (dengue virus type 2) (UniProt P29990).
The mark [1] stands for this setting: Thailand/16681/1984, Concentration 25.0 uM, Number of replicates 1.0.

Consider 26 compounds from ChEMBL document CHEMBL5606460, “ASAP - DENV-2 NS2B-NS3 protease fluorescence single point” (2024).

The structures appear in SMILES notation. Screen size: about 2,000 compounds; about 110 (5.5%) showed an effect of 50% or more. Some of the results follow.

For the compound `NCc1cccc(NC(=O)[C@H]2C[C@@H](NC(=O)OCc3ccccc3)C2)c1`, the inhibition is -3.83% (Thailand/16681/1984, Concentration 49.5 uM, Number of replicates 2.0, Standard deviation 3.726181466249098 %); -4.52% (Thailand/16681/1984, Concentration 99.01 uM, Number of replicates 2.0, Standard deviation 3.7742381458581895 %); -5.43% (Thailand/16681/1984, Concentration 198.0 uM, Number of replicates 2.0, Standard deviation 3.3297129743902736 %).

Turning to `O=Cc1ccc(N2CCC(C(=O)NCc3cccc(Cl)c3Cl)CC2)cc1`, the inhibition under setting [1] was found to be 13.1%. Turning to `N#Cc1cccc(-c2nc3c(C(=O)Nc4cccnc4)cc(Cl)cc3[nH]2)c1`, the inhibition reads like this: (Thailand/16681/1984, Concentration 99.5 uM, Number of replicates 2.0, Standard deviation 0.04165727071859149 %) 7.45%; (Thailand/16681/1984, Concentration 295.6 uM, Number of replicates 2.0, Standard deviation 4.418006643102565 %) 20.3%. Turning to `NC(=O)c1ccc(CNC(=O)NCCc2ccc(OCc3ccccc3)cc2)cc1`, the inhibition (Thailand/16681/1984, Concentration 49.5 uM, Number of replicates 2.0, Standard deviation 0.5577395301756973 %) is -1.78%; the inhibition (Thailand/16681/1984, Concentration 99.01 uM, Number of replicates 2.0, Standard deviation 1.0648622968700545 %) was -1.61%; the inhibition (Thailand/16681/1984, Concentration 198.0 uM, Number of replicates 2.0, Standard deviation 0.1126939294223689 %) is -0.94%. `Cc1cc(NC(=O)C2CCN(c3ccc(C=O)cc3)CC2)c(F)cc1Br`: the inhibition under setting [1] stood at 15.8%. Same read-out and setting: the same measure for `O=Cc1ccc(N2CCC(C(=O)N(CC(F)(F)F)CC(F)(F)F)CC2)cc1`: 10.3%; for `CN(C)CCN(Cc1ccccc1)C(=O)C1CCN(c2ccc(C=O)cc2)CC1`: 15.1%. As for `CCc1cc(C)nc(C2CCN(Cc3c[nH]c4ccccc34)CC2)n1`, the inhibition (Thailand/16681/1984, Concentration 49.5 uM, Number of replicates 2.0, Standard deviation 0.5385296709740081 %) came out at 0.046%; the inhibition (Thailand/16681/1984, Concentration 99.01 uM, Number of replicates 2.0, Standard deviation 1.0618023724478907 %) is 0.432%; the inhibition (Thailand/16681/1984, Concentration 198.0 uM, Number of replicates 2.0, Standard deviation 1.4139495966608713 %) amounted to 1.68%. For the compound `c1ccc(C2CCN(Cc3c[nH]c4ccccc34)CC2)nc1`, the inhibition is -1.34% (Thailand/16681/1984, Concentration 49.5 uM, Number of replicates 2.0, Standard deviation 4.603470646814268 %); 0.417% (Thailand/16681/1984, Concentration 99.01 uM, Number of replicates 2.0, Standard deviation 4.546574592960684 %); 2.87% (Thailand/16681/1984, Concentration 198.0 uM, Number of replicates 2.0, Standard deviation 4.978090128111347 %). Consider `CN(C[C@H](O)[C@@H](O)[C@H](O)[C@H](O)CO)C(=O)C1CCN(c2ccc(C=O)cc2)CC1`, for which the inhibition under setting [1] stood at 9.51%. Consider `Cc1cc(CO)c2cccc(CC(=O)NCCN3CCOCC3)c2n1`, for which the inhibition (Thailand/16681/1984, Concentration 99.9 uM, Number of replicates 2.0, Standard deviation 2.2245511253795573 %) was -9.04%. As to `Cc1ccsc1CN(CC(C)C)C(=O)C1CCN(c2ccc(C=O)cc2)CC1`, the inhibition under setting [1] came out at 16.4%.

Consider `COc1ccc(F)cc1-c1ccccc1C(=O)Nc1cnn(C)c1`, for which the inhibition (Thailand/16681/1984, Concentration 49.5 uM, Number of replicates 2.0, Standard deviation 2.2581672831644526 %) was -4.25%; the inhibition (Thailand/16681/1984, Concentration 99.01 uM, Number of replicates 2.0, Standard deviation 1.9365380229757554 %) was -2.49%; the inhibition (Thailand/16681/1984, Concentration 198.0 uM, Number of replicates 2.0, Standard deviation 2.756548372009165 %) is -2.95%. As for `O=Cc1ccc(N2CCC(C(=O)N3CCC(=C4c5ccc(Cl)cc5CCc5cccnc54)CC3)CC2)cc1`, the inhibition under setting [1] is -7.77%. Take `Cc1cc(CO)c2cccc(Cc3ccccc3NC(=O)Cc3nnc(C)[nH]3)c2n1`: the inhibition by setting is: (Thailand/16681/1984, Concentration 49.95 uM, Number of replicates 2.0, Standard deviation 1.0489246346930539 %) 2.09%; (Thailand/16681/1984, Concentration 99.9 uM, Number of replicates 2.0, Standard deviation 0.8121374020252716 %) 10.7%. Consider `CC(=O)N[C@@H](Cc1ccc(O)cc1)C(=O)Nc1cccc2c(CO)cc(C)nc12`, for which the inhibition is, setting by setting: (Thailand/16681/1984, Concentration 49.95 uM, Number of replicates 2.0, Standard deviation 2.4752459751189644 %) -9.17%; (Thailand/16681/1984, Concentration 99.9 uM, Number of replicates 2.0, Standard deviation 3.123465853915667 %) -9.54%. For the compound `Cc1cc(CO)c2cccc(Cc3cccc(NC(=O)C4(C(N)=O)CC4)c3)c2n1`, the inhibition runs as follows: (Thailand/16681/1984, Concentration 49.95 uM, Number of replicates 2.0, Standard deviation 2.0722319933927014 %) -2.83%; (Thailand/16681/1984, Concentration 99.9 uM, Number of replicates 2.0, Standard deviation 1.5321916950743657 %) 5.38%.

`Cc1cc(CO)c2cccc(NC(=O)[C@@H]3CC(=O)CCN3)c2n1`: the inhibition reads like this: (Thailand/16681/1984, Concentration 49.95 uM, Number of replicates 2.0, Standard deviation 1.684279261738791 %) 1.29%; (Thailand/16681/1984, Concentration 99.9 uM, Number of replicates 2.0, Standard deviation 1.6842793565692 %) -1.57%.

As to `Cc1cc(NC(=O)C2CCN(c3ccc(C=O)cc3)CC2)ncc1I`, the inhibition under setting [1] was 12.5%.

For the compound `Cc1cnccc1NC(=O)c1cccnc1OCC(C)C`, the inhibition reads like this: (Thailand/16681/1984, Concentration 49.5 uM, Number of replicates 2.0, Standard deviation 1.0025877150906009 %) -3.33%; (Thailand/16681/1984, Concentration 99.01 uM, Number of replicates 2.0, Standard deviation 1.539326482177684 %) -2.27%; (Thailand/16681/1984, Concentration 198.0 uM, Number of replicates 2.0, Standard deviation 3.346222906476355 %) 0.296%. As for `COc1cccc(Cn2ncc(C3CCNCC3)c2C)n1`, the inhibition was -2.28% (Thailand/16681/1984, Concentration 49.5 uM, Number of replicates 2.0, Standard deviation 0.6865140838852157 %); -0.708% (Thailand/16681/1984, Concentration 99.01 uM, Number of replicates 2.0, Standard deviation 1.8857815426916016 %); -0.083% (Thailand/16681/1984, Concentration 198.0 uM, Number of replicates 2.0, Standard deviation 1.685903611817113 %). Turning to `CC(C)NC(=O)[C@H](Nc1ccc2c(c1)CNC2)c1cc(Cl)cc2[nH]c(-c3ccccc3)nc12`, the inhibition by setting is: (Thailand/16681/1984, Concentration 99.5 uM, Number of replicates 2.0, Standard deviation 1.6408381783405366 %) 91.5%; (Thailand/16681/1984, Concentration 295.6 uM, Number of replicates 2.0, Standard deviation 0.018514941963441705 %) 97.4%. As to `O=Cc1ccc(N2CCC(C(=O)Nc3cc(C(F)(F)F)ccc3Cl)CC2)cc1`, the inhibition under setting [1] was 11.7%. With `NCc1cccc(NC(=O)Cc2ccc(OCc3ccccc3)cc2)c1`, the inhibition reads like this: (Thailand/16681/1984, Concentration 49.5 uM, Number of replicates 2.0, Standard deviation 0.3616312555788717 %) -3.09%; (Thailand/16681/1984, Concentration 99.01 uM, Number of replicates 2.0, Standard deviation 0.27421312838327405 %) -2.89%; (Thailand/16681/1984, Concentration 198.0 uM, Number of replicates 2.0, Standard deviation 0.0354621897496722 %) -1.31%. `CC(C)(O)CN(Cc1ccccc1)C(=O)C1CCN(c2ccc(C=O)cc2)CC1`: the inhibition under setting [1] turned out to be 14.3%.

`CN1C(=O)c2ccc(NC(=O)C3CCN(c4ccc(C=O)cc4)CC3)cc2C1=O`: the inhibition under setting [1] was 15.7%.

In general, inhibition refers to the relative decrease from the control value, in per cent.
